# The other results are listed elsewhere or left out.
# B1: PV12658A-bvu-496-32-496 (Bacteroides vulgatus) (protein)
# chain: DLDGAITTPAAVELALNGIYYSLPGNGFNVIFPTVSGSFKAGTMWRQEIVSAGNAVYYSERMLPTLSFSDATEWDADYAVIKNANFLETACNRMSDGEFSGNRRAEVLGEIAYLRALAYFNILVRYCEFWDMNSEYGVVMRNEAPSVSNALKARSSVADSYQYILDQLEIAIEKAPDWKKLSQASKEAAKALKARVLLYAGKYTEAVAAVNDAIDTNSPLPEANYGDVFDKFSTTKEILFARVFDQKDATNTSTRQQCYGNSPTKKQGYWGPTNEYVELVGDDPRADAIFSKVDSLMDSRSSAVAYNLKSVKKLLNDANDMPVIFSRVSELYLIKAEALYRSGASISEAYAPIRKLRERAGAEIILPANNEELETAIFNEWMLELSFENWHEWFAMIRFAGYTEKPDFTRLLALNKTLREALEKEYEKSEAQGDNYYQRIIDRRIDAIPSSEISSNLECKQNPGY
# Columns and labels:
# Assay in all cases: glycan array binding signal (z-score within array); higher = stronger binding
# Conditions in all cases: glycan notation: IUPAC condensed, linker removed
# [1] = biological target: GlcNAc(b1-2)Gal(b1-3)GalNAc
# Method in brief: (§1)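 The binding signal is a Z-score computed within each array. Data were drawn from 3228 arrays in the Consortium for Functional Glycomics database, restricted to those with a known protein sequence. Scores were averaged over arrays of the same protein sequence at different concentrations or buffers, and over linkers, and negative values can be taken as non-binding.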
# [2] = biological target: GlcNAc(b1-2)Man(a1-3)[GlcNAc(b1-2)Man(a1-6)]Man(b1-4)GlcNAc(b1-4)GlcNAc
# Method in brief: as §1
# [3] = biological target: GlcNAc(b1-2)Man(a1-3)[GlcNAc(b1-2)Man(a1-6)]Man(b1-4)GlcNAc(b1-4)[Fuc(a1-6)]GlcNAc
# Method in brief: as §1
# [4] = biological target: GlcNAc(b1-2)Man(a1-3)[GlcNAc(b1-4)][GlcNAc(b1-2)Man(a1-6)]Man(b1-4)GlcNAc(b1-4)GlcNAc
# Method in brief: as §1
# [5] = biological target: GlcNAc(b1-2)Man(a1-3)[GlcNAc(b1-4)][GlcNAc(b1-2)Man(a1-6)]Man(b1-4)GlcNAc(b1-4)[Fuc(a1-6)]GlcNAc
# Method in brief: as §1
# [6] = biological target: GlcNAc(b1-2)[GlcNAc(b1-4)]Man(a1-3)[GlcNAc(b1-2)Man(a1-6)]Man(b1-4)GlcNAc(b1-4)GlcNAc
# Method in brief: as §1
# [7] = biological target: GlcNAc(b1-2)[GlcNAc(b1-4)]Man(a1-3)[GlcNAc(b1-4)][GlcNAc(b1-2)Man(a1-6)]Man(b1-4)GlcNAc(b1-4)GlcNAc
# Method in brief: as §1
# [8] = biological target: GlcNAc(b1-2)[GlcNAc(b1-4)]Man(a1-3)[GlcNAc(b1-4)][GlcNAc(b1-2)[GlcNAc(b1-6)]Man(a1-6)]Man(b1-4)GlcNAc(b1-4)GlcNAc
# Method in brief: as §1
# [9] = biological target: GlcNAc(b1-2)[GlcNAc(b1-4)]Man(a1-3)[GlcNAc(b1-4)][GlcNAc(b1-2)[GlcNAc(b1-6)]Man(a1-6)]Man(b1-4)GlcNAc(b1-4)[Fuc(a1-6)]GlcNAc
# Method in brief: as §1
# [10] = biological target: GlcNAc(b1-2)[GlcNAc(b1-6)]Man(a1-6)[GlcNAc(b1-2)Man(a1-3)]Man(b1-4)GlcNAc(b1-4)GlcNAc
# Method in brief: as §1
# [11] = biological target: GlcNAc(b1-2)[GlcNAc(b1-6)]Man(a1-6)[GlcNAc(b1-2)Man(a1-3)]Man(b1-4)GlcNAc(b1-4)[Fuc(a1-6)]GlcNAc
# Method in brief: as §1
# [12] = biological target: GlcNAc(b1-2)[GlcNAc(b1-6)]Man(a1-6)[GlcNAc(b1-4)][GlcNAc(b1-2)Man(a1-3)]Man(b1-4)GlcNAc(b1-4)GlcNAc
# Method in brief: as §1
# [13] = biological target: GlcNAc(b1-3)Fuc
# Method in brief: as §1
# [14] = biological target: GlcNAc(b1-3)Gal
# Method in brief: as §1
# [15] = biological target: GlcNAc(b1-3)Gal(b1-3)GalNAc
# Method in brief: as §1
# [16] = biological target: GlcNAc(b1-3)Gal(b1-4)Glc
# Method in brief: as §1
# [17] = biological target: GlcNAc(b1-3)Gal(b1-4)GlcNAc
# Method in brief: as §1
# [18] = biological target: GlcNAc(b1-3)Gal(b1-4)GlcNAc(b1-2)Man(a1-3)[GlcNAc(b1-3)Gal(b1-4)GlcNAc(b1-2)Man(a1-6)]Man(b1-4)GlcNAc(b1-4)GlcNAc
# Method in brief: as §1
# [19] = biological target: GlcNAc(b1-3)Gal(b1-4)GlcNAc(b1-2)Man(a1-3)[GlcNAc(b1-3)Gal(b1-4)GlcNAc(b1-2)Man(a1-6)]Man(b1-4)GlcNAc(b1-4)[Fuc(a1-6)]GlcNAc
# Method in brief: as §1
# [20] = biological target: GlcNAc(b1-3)Gal(b1-4)GlcNAc(b1-2)[GlcNAc(b1-3)Gal(b1-4)GlcNAc(b1-6)]Man(a1-6)[GlcNAc(b1-3)Gal(b1-4)GlcNAc(b1-2)Man(a1-3)]Man(b1-4)GlcNAc(b1-4)GlcNAc
# Method in brief: as §1
# [21] = biological target: GlcNAc(b1-3)Gal(b1-4)GlcNAc(b1-3)Gal(b1-4)GlcNAc
# Method in brief: as §1
# [22] = biological target: GlcNAc(b1-3)Gal(b1-4)GlcNAc(b1-3)Gal(b1-4)GlcNAc(b1-2)Man(a1-3)[GlcNAc(b1-3)Gal(b1-4)GlcNAc(b1-3)Gal(b1-4)GlcNAc(b1-2)Man(a1-6)]Man(b1-4)GlcNAc(b1-4)GlcNAc
# Method in brief: as §1
# [23] = biological target: GlcNAc(b1-3)Gal(b1-4)GlcNAc(b1-3)Gal(b1-4)GlcNAc(b1-2)Man(a1-3)[GlcNAc(b1-3)Gal(b1-4)GlcNAc(b1-3)Gal(b1-4)GlcNAc(b1-2)Man(a1-6)]Man(b1-4)GlcNAc(b1-4)[Fuc(a1-6)]GlcNAc
# Method in brief: as §1
# [24] = biological target: GlcNAc(b1-3)Gal(b1-4)GlcNAc(b1-3)Gal(b1-4)GlcNAc(b1-2)[GlcNAc(b1-3)Gal(b1-4)GlcNAc(b1-3)Gal(b1-4)GlcNAc(b1-6)]Man(a1-6)[GlcNAc(b1-3)Gal(b1-4)GlcNAc(b1-3)Gal(b1-4)GlcNAc(b1-2)Man(a1-3)]Man(b1-4)GlcNAc(b1-4)[Fuc(a1-6)]GlcNAc
# Method in brief: as §1
# [25] = biological target: GlcNAc(b1-3)Gal(b1-4)GlcNAc(b1-3)Gal(b1-4)GlcNAc(b1-3)Gal(b1-4)GlcNAc(b1-2)Man(a1-3)[GlcNAc(b1-3)Gal(b1-4)GlcNAc(b1-3)Gal(b1-4)GlcNAc(b1-3)Gal(b1-4)GlcNAc(b1-2)Man(a1-6)]Man(b1-4)GlcNAc(b1-4)GlcNAc
# Method in brief: as §1
# [26] = biological target: GlcNAc(b1-3)Gal(b1-4)GlcNAc(b1-3)Gal(b1-4)GlcNAc(b1-3)Gal(b1-4)GlcNAc(b1-2)Man(a1-3)[GlcNAc(b1-3)Gal(b1-4)GlcNAc(b1-3)Gal(b1-4)GlcNAc(b1-3)Gal(b1-4)GlcNAc(b1-2)Man(a1-6)]Man(b1-4)GlcNAc(b1-4)[Fuc(a1-6)]GlcNAc
# Method in brief: as §1
# [27] = biological target: GlcNAc(b1-3)Gal(b1-4)GlcNAc(b1-3)Gal(b1-4)GlcNAc(b1-3)Gal(b1-4)GlcNAc(b1-2)[GlcNAc(b1-3)Gal(b1-4)GlcNAc(b1-3)Gal(b1-4)GlcNAc(b1-3)Gal(b1-4)GlcNAc(b1-6)]Man(a1-6)[GlcNAc(b1-3)Gal(b1-4)GlcNAc(b1-3)Gal(b1-4)GlcNAc(b1-3)Gal(b1-4)GlcNAc(b1-2)Man(a1-3)]Man(b1-4)GlcNAc(b1-4)[Fuc(a1-6)]GlcNAc
# Method in brief: as §1
# [28] = biological target: GlcNAc(b1-3)Gal(b1-4)GlcNAc(b1-3)Gal(b1-4)GlcNAc(b1-3)Gal(b1-4)GlcNAc(b1-3)Gal(b1-4)GlcNAc(b1-2)Man(a1-3)[GlcNAc(b1-3)Gal(b1-4)GlcNAc(b1-3)Gal(b1-4)GlcNAc(b1-3)Gal(b1-4)GlcNAc(b1-3)Gal(b1-4)GlcNAc(b1-2)Man(a1-6)]Man(b1-4)GlcNAc(b1-4)GlcNAc
# Method in brief: as §1
# [29] = biological target: GlcNAc(b1-3)Gal(b1-4)GlcNAc(b1-3)Gal(b1-4)GlcNAc(b1-3)Gal(b1-4)GlcNAc(b1-3)Gal(b1-4)GlcNAc(b1-2)Man(a1-3)[GlcNAc(b1-3)Gal(b1-4)GlcNAc(b1-3)Gal(b1-4)GlcNAc(b1-3)Gal(b1-4)GlcNAc(b1-3)Gal(b1-4)GlcNAc(b1-2)Man(a1-6)]Man(b1-4)GlcNAc(b1-4)[Fuc(a1-6)]GlcNAc
# Method in brief: as §1
# [30] = biological target: GlcNAc(b1-3)Gal(b1-4)GlcNAc(b1-3)Gal(b1-4)GlcNAc(b1-3)Gal(b1-4)GlcNAc(b1-3)Gal(b1-4)GlcNAc(b1-2)[GlcNAc(b1-3)Gal(b1-4)GlcNAc(b1-3)Gal(b1-4)GlcNAc(b1-3)Gal(b1-4)GlcNAc(b1-3)Gal(b1-4)GlcNAc(b1-6)]Man(a1-6)[GlcNAc(b1-3)Gal(b1-4)GlcNAc(b1-3)Gal(b1-4)GlcNAc(b1-3)Gal(b1-4)GlcNAc(b1-3)Gal(b1-4)GlcNAc(b1-2)Man(a1-3)]Man(b1-4)GlcNAc(b1-4)[Fuc(a1-6)]GlcNAc
# Method in brief: as §1
# [31] = biological target: GlcNAc(b1-3)Gal(b1-4)GlcNAc(b1-3)Gal(b1-4)GlcNAc(b1-3)GalNAc
# Method in brief: as §1
# [32] = biological target: GlcNAc(b1-3)Gal(b1-4)GlcNAc(b1-3)GalNAc
# Method in brief: as §1
# [33] = biological target: GlcNAc(b1-3)Gal(b1-4)GlcNAc(b1-3)[GlcNAc(b1-3)Gal(b1-4)GlcNAc(b1-3)]GalNAc
# Method in brief: as §1
# [34] = biological target: GlcNAc(b1-3)Gal(b1-4)GlcNAc(b1-6)[Gal(b1-3)]GalNAc
# Method in brief: as §1
# [35] = biological target: GlcNAc(b1-3)Gal(b1-4)GlcNAc(b1-6)[GlcNAc(b1-3)Gal(b1-3)]GalNAc
# Method in brief: as §1
# [36] = biological target: GlcNAc(b1-3)Gal(b1-4)GlcNAc(b1-6)[GlcNAc(b1-3)]Gal(b1-4)GlcNAc
# Method in brief: as §1
# [37] = biological target: GlcNAc(b1-3)GalNAc
# Method in brief: as §1
binder,measurement,setting,value
B1,glycan array binding signal (z-score),[1],-0.342
same,glycan array binding signal (z-score),[2],-0.472
same,glycan array binding signal (z-score),[3],-0.488
same,glycan array binding signal (z-score),[4],-0.291
same,glycan array binding signal (z-score),[5],-0.235
same,glycan array binding signal (z-score),[6],0.029
same,glycan array binding signal (z-score),[7],-0.125
same,glycan array binding signal (z-score),[8],-0.432
same,glycan array binding signal (z-score),[9],-0.461
same,glycan array binding signal (z-score),[10],-0.355
same,glycan array binding signal (z-score),[11],-0.193
same,glycan array binding signal (z-score),[12],-0.218
same,glycan array binding signal (z-score),[13],-0.289
same,glycan array binding signal (z-score),[14],-0.467
same,glycan array binding signal (z-score),[15],-0.315
same,glycan array binding signal (z-score),[16],-0.278
same,glycan array binding signal (z-score),[17],-0.437
same,glycan array binding signal (z-score),[18],0.145
same,glycan array binding signal (z-score),[19],-0.254
same,glycan array binding signal (z-score),[20],0.404
same,glycan array binding signal (z-score),[21],-0.488
same,glycan array binding signal (z-score),[22],0.43
same,glycan array binding signal (z-score),[23],0.127
same,glycan array binding signal (z-score),[24],-0.032
same,glycan array binding signal (z-score),[25],-0.287
same,glycan array binding signal (z-score),[26],0.056
same,glycan array binding signal (z-score),[27],-0.046
same,glycan array binding signal (z-score),[28],0.265
same,glycan array binding signal (z-score),[29],0.003
same,glycan array binding signal (z-score),[30],0.461
same,glycan array binding signal (z-score),[31],0.161
same,glycan array binding signal (z-score),[32],-0.397
same,glycan array binding signal (z-score),[33],-0.283
same,glycan array binding signal (z-score),[34],0.089
same,glycan array binding signal (z-score),[35],-0.117
same,glycan array binding signal (z-score),[36],-0.545
same,glycan array binding signal (z-score),[37],-0.285
